For 97 molecules, inhibition results are on record in PubChem BioAssay AID485344 (National Center for Advancing Translational Sciences (NCATS), 2010).

Among all 340,000 compounds or so, about 6,900 (2%) were called active. No stated cut-off is given here; in the data, active means inhibition above about 30%; inactive means below that, where a call was filed. This is a selection; strong and weak results do not stand in their true shares. Where no call is shown, the source filed none.

Chain of UniProt P14416 (P14416 whole entry, looked up): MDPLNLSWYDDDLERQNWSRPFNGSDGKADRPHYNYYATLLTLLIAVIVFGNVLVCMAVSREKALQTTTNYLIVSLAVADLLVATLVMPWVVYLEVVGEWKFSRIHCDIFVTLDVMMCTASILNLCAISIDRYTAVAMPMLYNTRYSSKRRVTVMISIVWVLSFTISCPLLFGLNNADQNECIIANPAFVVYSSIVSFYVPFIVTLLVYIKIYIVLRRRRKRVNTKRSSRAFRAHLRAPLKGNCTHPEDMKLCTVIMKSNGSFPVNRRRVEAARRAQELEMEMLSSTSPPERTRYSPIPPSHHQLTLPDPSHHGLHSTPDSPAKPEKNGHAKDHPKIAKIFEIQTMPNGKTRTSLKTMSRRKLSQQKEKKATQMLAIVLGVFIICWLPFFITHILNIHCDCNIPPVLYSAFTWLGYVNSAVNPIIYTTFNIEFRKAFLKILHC

For the test, the target named is D(2) dopamine receptor (Homo sapiens) (UniProt P14416). In words: HTS Assay for Allosteric Antagonists of the Human D2 Dopamine Receptor: Primary Screen for Antagonists. Further: 0% is about no effect. The following applies: HEK293 TREx D2 cells, calcium flux, dopamine EC80; at 10 µM; stronger effect = higher value. In short, it runs like this:
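Overnight-induced (tetracycline, 30 C) HEK293 T-REx cells carrying force-coupled D2 receive a no-wash calcium dye, then compound, then EC80 dopamine at 180 s; signals are read kinetically throughout.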
(In general: Calcium assays in cells follow changes in intracellular calcium, usually with a dye or a luminescent sensor.)
What is called inhibition is the relative decrease from the control value, in per cent. As for `CCC(C)n1c(=N)c(C(=O)NC2CCCCC2)cc2c(=O)n3cc(C)ccc3nc21` (configuration not stated), the inhibition is -27.5%. With `CCCc1cc(=O)oc2c3c(cc(OCC(=O)N[C@@H](C)C(=O)O)c12)OC(C)(C)CC3` the figure was active: 32.9%; with `Cc1cccc(C(=O)NCc2cn3cccc(C)c3n2)c1`, 2.77%. With `CC(C)c1ccc(Cc2cnc(NC(=O)c3ccc4c(c3)CC(c3ccccc3)OC4=O)s2)cc1` (configuration not stated) the figure was 13.1%; with `O=c1cc(N2CCN(c3ccc(F)cc3)CC2)[nH]c(=O)n1-c1cccc(Br)c1`, -14.8%; with `COc1ccc(N(C(=O)c2cc(OC)c(OC)c(OC)c2)S(=O)(=O)c2ccc(C)cc2)cc1`, 7.56%. Consider `Cn1cc(-c2cc3n(n2)CCC(=O)N3CC(=O)NCc2ccccc2)c2ccccc21`, for which the inhibition is -12.3%. `CN(C)C1(CNC(=O)COc2cccc(Cl)c2)CCCCC1`: the inhibition was -4.2%. In the case of `Cc1ccccc1C(=O)Nc1ccc2nc(SCC(=O)N(C)c3ccccc3)sc2c1`, the inhibition is -18.2%. With `Cc1cccc(Cn2c(SCc3ccc(C(=O)NCc4cccs4)cc3)nc3ccncc32)c1` the figure was -1.25%. Turning to `Cc1ccc(Nc2c(-c3cccc(Cl)c3)nc3cccc(C)n23)cc1`, the inhibition is -0.194%. With `Cc1ccc(NC(=O)CSc2nc(=O)n(CCN3CCOCC3)c3c2CCC3)cc1Cl` the figure was 9.65%; with `CCC(=O)N1c2ccccc2CC1C(=O)NCCN1CCN(c2ccccc2F)CC1` (configuration not stated), 18.9%; with `Cn1c(=O)nc2n(-c3ccc(Br)cc3)c3cccc(Cl)c3cc-2c1=O`, 3.17%.

`CCCc1noc(-c2ccc(NCc3ccccc3OC)c([N+](=O)[O-])c2)n1`: the inhibition worked out at 18.8%.

For the molecule `Cc1ccc(C)c(N2CCN(S(=O)(=O)c3ccc(C4CCCCC4)cc3)CC2)c1`, the inhibition turned out to be 4.12%. As to `CC(C)(C)OC(=O)N1CCC(c2c(C(=O)NCc3ccccn3)cnn2-c2ccccc2Cl)CC1`, the inhibition was found to be 7.22%. With `Cc1[nH]c2ccccc2c1SCCNC(=O)c1ccc(F)cc1` the figure was -22.7%. With `CC(C)c1ccc(NC(=O)CSC2=Nc3ccccc3C3=NC(CC(=O)NCCc4ccccc4)C(=O)N23)cc1` (configuration not stated) the figure was -23.3%; with `COc1ccc(Cl)cc1NC(=O)c1c(NCc2cccs2)sc2c1CCC(C)C2` (configuration not stated), -0.67%. To `CCOc1ccccc1NC(=O)CSc1nc(-c2cccs2)cc(C(F)(F)F)n1` belongs 8.37%; to `O=C(Nc1cc(-c2nc3ccccc3o2)ccc1Cl)c1cc([N+](=O)[O-])ccc1N1CCOCC1`, 6.57%; to `COc1cccc(CNC(=O)C2CCN(c3ncnc4c3nc3n4CCCCC3)CC2)c1`, -0.192%. In the case of `Cc1cc(-c2ccc(C)c(S(=O)(=O)NCCc3ccccc3)c2)on1`, the inhibition came out at 8.51%.

Take `COc1ccc2c(c1)c(CC(=O)Nc1cc(C)c(OC)c(C)c1)c(C)n2C(=O)c1ccc(Cl)cc1`: the inhibition is -3.21%.

In the case of `CC(=O)c1ccc(OC(=O)c2c(-c3ccccc3Cl)noc2C)cc1`, the inhibition turned out to be 0.182%. To `Cn1nc(C(=O)Nc2cccc(C(F)(F)F)c2)c2c1-c1ccccc1S(=O)(=O)C2` belongs 0.874%; to `O=C(COc1ccc(Cl)cc1Cl)Nc1ccc(C(=O)OC2CCCCC2)cc1`, -0.481%; to `CCCN(CCC)S(=O)(=O)c1ccc(C(=O)N2CCn3c4c(c5cc(C)ccc53)CCCC42)cc1` (configuration not stated), 3.12%. With `CCOc1ccc(NS(=O)(=O)c2ccc3[nH]cc(C(=O)NCCc4ccccc4)c(=O)c3c2)cc1` the figure was 1.39%; with `COc1ccccc1Nc1ncnc2c1nc1n2CCCCC1`, 14.7%; with `Cn1c(SCC(=O)Nc2ccccc2F)nc2c([nH]c3ccccc32)c1=O`, -9.49%. To `CCc1ccccc1NC(=O)CSc1nccn1C` belongs 3.11%; to `CCOC(=O)c1cc(OC(=O)c2cc(Cl)ccc2OC)n(-c2ccccc2)n1`, 9.1%. For the molecule `CCC(C(=O)O)N1C(=O)c2ccccc2C1=O` (configuration not stated), the inhibition is active: 37%.

On to `CCc1ccc(S(=O)(=O)c2nnn3c2nc(NCCC(C)C)c2cc(Cl)ccc23)cc1`, for which the inhibition was -9.87%.

Regarding `Cn1nc(C(=O)Nc2ccc(Br)cc2)cc1C(=O)Nc1ccc(Br)cc1`, the inhibition is active: 38.3%. To `COc1cccc(-n2cc(CNCc3cn(C)nc3-c3ccccc3F)cn2)c1` belongs active: 84.7%.

Regarding `Cc1cccc(N2CCN(C(=O)c3ccc4c(c3)CCN4S(=O)(=O)c3ccccc3)CC2)c1C`, the inhibition came out at 5.75%. With `CCc1ccc(Nc2nc3ccccc3c3nnc(C)n23)cc1` the figure was 1.96%. For `CC(=O)c1cc(-c2ccccc2)n(CC(=O)Nc2ccc(C)cc2C)c1C`, the inhibition is -9.27%. With `Nc1nonc1-c1nc2ccccc2n1CC(=O)Nc1ccc(F)cc1` the figure was 1.39%; with `CCn1c(SC(C)C(=O)NCC2CCCO2)nc2ccccc21` (configuration not stated), active: 31%. To `Cc1ccc(S(=O)(=O)c2cn(CC(=O)Nc3ccccc3)c3cc4c(cc3c2=O)OCO4)cc1` belongs 22%; to `Cc1ccc(-c2nc(CS(=O)CC(=O)O)c(C)o2)cc1` (configuration not stated), -12.9%; to `CCN1CCN(c2ncc3c(n2)CCN(Cc2ccc(C)s2)C3)CC1`, -10.9%.

Consider `Cc1cccc(CCNC(=O)c2nc(-c3ccc(Cl)cc3)n3c2CCCCC3)c1`, for which the inhibition is -4.45%. To `COc1ccc(Br)cc1CNC(=O)c1cc2c(=O)n(C)c3ccccc3c2s1` belongs -16.1%; to `CCn1c2c(c(=O)n3ncc(C(=O)Nc4ccc(F)c(Cl)c4)c13)CN(Cc1ccc(OC)cc1)CC2`, 18.4%. To `CC(C)CC(=O)N(Cc1ccccc1)S(=O)(=O)c1ccc2c(c1)oc(=O)n2C` belongs -8.9%; to `CCOc1ccc(C(=O)OCc2cc(=O)n3nc(C(C)C)sc3n2)cc1`, 6.66%. To `Cc1ccc(Cl)cc1N1CCN(C(=O)c2cn(C)c3ccc(S(=O)(=O)N4CCCC4)cc3c2=O)CC1` belongs -0.366%; to `CC1=C(C(=O)OC2CCCC2)C(c2cccc(Cl)c2Cl)CC(=O)N1` (configuration not stated), 9.49%; to `Cc1ccccc1OCC(=O)Nc1nnc(S(=O)(=O)N(C)c2ccccc2)s1`, 15.4%. Take `COc1ccccc1N1CCN(C(=O)c2cc3c(=O)n(Cc4cccnc4)ccc3nc2C)CC1`: the inhibition was -8.35%. To `O=C(Cn1c(=O)n(-c2ccccc2)c(=O)c2c3c(sc21)CCCC3)Nc1ccc(F)cc1` belongs -0.603%; to `CCC1Oc2ccccc2N(CC(=O)NCc2ccc(C)cc2)C1=O` (configuration not stated), 24%; to `CCOc1ccc(CNC(=O)c2cnc(SC)nc2C)cc1`, 1.08%.

`COC(=O)c1c(-c2cccs2)csc1NC(=O)COc1ccc(C(C)C)cc1`: the inhibition is -5.94%. To `CCOC(=O)C1CCN(C(=O)c2nn(-c3ccc(C)cc3)c(=O)n(C)c2=O)CC1` belongs 22.2%; to `O=C(Nc1ccc(Cl)cc1C(F)(F)F)c1cc(S(=O)(=O)NCc2ccccc2)ccc1F`, -8.17%; to `CCc1ccc(CNC(=O)c2ccc(CS(=O)(=O)Cc3ccccc3C)o2)cc1`, 18.4%. With `O=C(CSc1nccn1C1CCCC1)Nc1ccccc1` the figure was -1.36%; with `CCOC(=O)CSc1nc2ccccc2n2c(C)nnc12`, 9.01%.

Take `CCN(CC)C(=O)C1CCN(C(=O)c2cnn(-c3ccccc3)c2-n2cccc2)CC1`: the inhibition was determined as 7.22%.

`COc1ccc(CNC(=O)CCS(=O)(=O)c2ccc3c(c2)CC(C)N3C(=O)C2CC2)cc1` (configuration not stated): the inhibition amounted to 0.72%. In the case of `COc1cccc(NC(=O)CN2C(=O)C3(SCC(=O)N3c3cc(C)cc(C)c3)c3ccccc32)c1` (configuration not stated), the inhibition was found to be 6.27%. As to `Cc1ccc(CN2C(=O)N(c3ccc(C)c(Cl)c3)S(=O)(=O)c3ccccc32)cc1`, the inhibition amounted to 5.27%. To `Cc1ccc(NC(=O)C2CCN(S(=O)(=O)c3c(C)noc3C)CC2)cc1C` belongs -7.19%; to `N#Cc1ccc(NC(=O)COCc2cc(-c3ccc(F)cc3)on2)cc1`, 2.52%; to `COC(=O)c1cc2oc(C)cc2n1Cc1ccc(Cl)cc1`, 12.5%.

For the molecule `N#Cc1ccc(NC(=O)CN2CCN(c3ccccn3)CC2)cc1`, the inhibition is active: 68.4%. To `CC(C)n1c(=N)c(C(=O)NCc2cccnc2)cc2c(=O)n3ccccc3nc21` belongs -1.5%; to `Cc1ccccc1NC(=O)CC1SCCNC1=O` (configuration not stated), active: 45%. To `COc1ccc(Cl)cc1NS(=O)(=O)c1cc(Br)cc2c1N(C(=O)C1CC1)CC2` belongs -5.26%; to `Cc1ccc(CNC(=O)CCc2c(C)nc3c(c(C)nn3-c3ccccc3)c2C)cc1`, -10.2%.

Regarding `COc1ccc(C(=O)c2oc3ccccc3c2NC(=O)COc2ccccc2)cc1`, the inhibition is -0.206%. To `COc1ccc(CCNC(=O)c2sc3nc4n(c(=O)c3c2C)CCCC4)cc1OC` belongs -23.5%; to `CCc1cccc(C)c1NC(=O)CC1Oc2ccc(C)cc2NC1=O` (configuration not stated), 7.82%.

For the molecule `CCC(C)n1c(=N)c(C(=O)NCc2ccccc2)cc2c(=O)n3cc(C)ccc3nc21` (configuration not stated), the inhibition was -12.2%. With `COc1ccc(C(=O)Nc2nnc(S(=O)(=O)N3CCCCCC3)s2)cc1OC` the figure was 6.11%; with `CCOC(=O)c1cc(-c2ccccc2)n(-c2cccc(C(=O)Nc3cccc(F)c3)c2)c1C`, 23.3%.

In the case of `Cc1ccc(NC(=O)C2CCN(c3nc4ccccc4nc3C(F)(F)F)CC2)cc1F`, the inhibition was 0.537%. With `O=C1N[C@@H](Cc2ccccc2)[C@@H](c2ccco2)O1` the figure was active: 31.8%; with `COc1ccc(N2CCN(C(=O)C3CCCN(S(=O)(=O)c4ccc5c(c4)CCCN5C(C)=O)C3)CC2)cc1` (configuration not stated), 6.53%; with `CCOC(=O)c1cnc2c(ccc3ccccc32)c1Nc1ccccc1OCC`, 3.95%. For the molecule `COc1ccc(OC)c(-c2cc(C(=O)NCCc3ccccc3)c3c(-c4ccc(C)cc4)[nH]nc3n2)c1`, the inhibition is -2.73%. With `COCCCNC(=O)CS(=O)Cc1nc(-c2cccc(C)c2)oc1C` (configuration not stated) the figure was 7.67%; with `CCOc1ccccc1NC(=O)c1c(NC(=O)COc2ccccc2)sc2c1CCCCC2`, -8.01%; with `CC(NC(=O)CCCC1=NS(=O)(=O)c2ccccc2N1)c1ccccc1` (configuration not stated), 5.88%. With `Cc1ccc(N2C(=O)CSC23C(=O)N(CC(=O)NCCc2ccccc2)c2ccccc23)cc1C` (configuration not stated) the figure was 2.46%; with `CCCn1cc(S(=O)(=O)c2ccccc2)c(=O)c2cc(F)c(N3CCCCC3)cc21`, 8.99%.

On to `O=C(Nc1cccc(Cl)c1)N1CCSc2ccccc21`, for which the inhibition is -18.9%. To `CSc1ccc(CCNC(=O)c2cnn(-c3ccccc3)c2-n2cccc2)cc1` belongs 2.07%. With `CCN(CC)c1cc(C)c2cc(NC(=O)c3cccc(F)c3)ccc2n1` the figure was -4.46%.

Regarding `Cc1cccc(NC(=O)c2cc(S(=O)(=O)N3CCc4ccccc43)ccc2F)c1C`, the inhibition is 13.8%. To `CC(=O)Nc1ccc(S(=O)(=O)Oc2ccc(/C=N/N=C3/NC(=O)C(CC(=O)O)S3)cc2)cc1` (configuration not stated) belongs active: 35.4%.
